# Like-named read-outs stand apart in the source and are kept apart here.
# System: rats with liver damage caused by carbon tetrachloride
# Details: daily for 4 days
SMILES,"period of narcosis, compound group with CCl4 liver damage (250 mg/kg i.g.) [min]","period of narcosis, compound group with CCl4 liver damage (200 mg/kg i.g.) [min]",other results
"CCOC(=O)C=C1SC(c2ccccc2)(N2CCCCC2)C(=O)N1C (stereo not drawn) [Compound 1, ethyl 3-methyl-5-phenyl-5-N-piperidino-4-oxo-Δ^2,^α -thiazolidine-acetate]",35.67 ± 13.76,,
"CCOC(=O)C=C1SC(c2ccccc2)(N2CCCC2)C(=O)N1C (stereo not drawn) [Compound 2, ethyl 3-methyl-5-phenyl-5-N-pyrrolidino-4-oxo-Δ^2,^α -thiazolidine-acetate]",34.83 ± 14.65,,
"CCOC(=O)C=C1SC(CC)(c2ccccc2)C(=O)N1C (stereo not drawn) [Compound 3, ethyl 3-methyl-5-ethyl-5-phenyl-4-oxo-Δ^2,^α -thiazolidine-acetate]",,,"period of narcosis, compound group with CCl4 liver damage (75 mg/kg i.g., only 4 animals per group): 31.67 ± 23.56 min"
"CCOC(=O)C=C1SC(c2ccccc2)(N2CCCCC2)C(=O)N1CC (stereo not drawn) [Compound 4, Ethyl 3-ethyl-5-phenyl-5-N-piperidino-4-oxo-Δ^2,^α -thiazolidine-acetate]",,26.00 ± 5.20,"period of narcosis, compound group with CCl4 liver damage (100 mg/kg i.g.): 55.82 ± 21.91 min"
"CCOC(=O)C=C1SC(c2ccccc2)(N(C)CCO)C(=O)N1CC (stereo not drawn) [Compound 5, Ethyl 3-ethyl-5-phenyl-5-(methyl-β-hydroxyethylamino)-4-oxo-Δ^2,^α -thiazolidine-acetate]",,36.58 ± 9.62,

# From patent US4018775A, “5-Phenyl-thiazolidin-4-one derivatives” (Warner-Lambert Company, priority 1974, dated 1977)
